# Laboratory results taken from publication PMC4336329 (PLoS ONE, 2015).
# Among all 310,000 compounds or so, about 14,000 (4.5%) showed an effect of 50% or more. The effect is printed as a negative number. Some of the results follow.
# Target: human ether-à-go-go-related gene (hERG) potassium channel (human, UniProt Q12809)
# Test: primary screen, population patch clamp on CHO cells stably expressing hERG
# 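Further: peak tail current of the secondary pulse compared with the same well before compound.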
# Sequence of human ether-à-go-go-related gene (hERG) potassium channel (Q12809 whole entry, looked up): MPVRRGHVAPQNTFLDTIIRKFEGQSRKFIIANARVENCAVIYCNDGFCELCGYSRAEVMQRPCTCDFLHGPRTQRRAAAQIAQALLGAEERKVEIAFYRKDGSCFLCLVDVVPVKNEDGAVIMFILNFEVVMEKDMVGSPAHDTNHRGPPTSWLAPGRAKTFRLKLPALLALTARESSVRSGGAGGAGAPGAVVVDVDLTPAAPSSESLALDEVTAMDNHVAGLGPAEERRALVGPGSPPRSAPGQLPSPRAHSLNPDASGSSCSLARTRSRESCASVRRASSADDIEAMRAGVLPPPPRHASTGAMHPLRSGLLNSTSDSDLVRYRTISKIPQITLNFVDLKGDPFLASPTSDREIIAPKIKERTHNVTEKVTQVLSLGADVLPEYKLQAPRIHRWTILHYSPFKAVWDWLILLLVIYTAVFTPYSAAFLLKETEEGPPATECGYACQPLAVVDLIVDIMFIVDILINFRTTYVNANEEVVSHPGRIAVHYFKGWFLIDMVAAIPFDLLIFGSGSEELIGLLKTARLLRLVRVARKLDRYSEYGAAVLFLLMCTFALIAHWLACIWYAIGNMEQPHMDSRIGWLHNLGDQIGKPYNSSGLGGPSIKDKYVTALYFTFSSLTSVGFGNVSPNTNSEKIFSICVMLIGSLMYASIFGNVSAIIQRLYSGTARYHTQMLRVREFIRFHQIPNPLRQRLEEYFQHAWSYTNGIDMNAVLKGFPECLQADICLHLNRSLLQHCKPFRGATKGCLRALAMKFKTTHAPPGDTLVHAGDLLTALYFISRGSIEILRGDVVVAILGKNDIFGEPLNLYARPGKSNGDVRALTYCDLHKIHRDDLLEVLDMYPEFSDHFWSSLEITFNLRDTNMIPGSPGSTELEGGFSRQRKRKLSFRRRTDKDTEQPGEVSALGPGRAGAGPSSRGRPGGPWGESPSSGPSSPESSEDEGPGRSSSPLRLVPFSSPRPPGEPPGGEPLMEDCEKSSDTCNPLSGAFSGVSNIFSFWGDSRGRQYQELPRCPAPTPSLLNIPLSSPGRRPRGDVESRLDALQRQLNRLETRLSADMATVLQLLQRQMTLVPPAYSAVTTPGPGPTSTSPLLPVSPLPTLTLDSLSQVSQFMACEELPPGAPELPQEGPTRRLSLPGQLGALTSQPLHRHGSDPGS
row,SMILES,"hERG current change (%, negative = inhibition) at 10uM [%]"
1,CCC1(CC)C(=O)C2=C3C1[C@H](C(=O)OC)CC(C(=O)OC)C[C@H]3n1c(=O)n(-c3ccccc3)c(=O)n1[C@H]2C (stereo partly shown),-1.47
2,O=C(CCc1ccc(O)c(O)c1)NNC(=S)Nc1ccc(Br)cc1Cl,13.2
3,CSc1nc2ccsc2c(=O)n1-c1cccnc1,17.4
4,O=S(=O)(c1ccc(N2CCOCC2)nc1)N(Cc1ccccn1)Cc1ccccn1,-1.83
5,CN(c1ccccc1)S(=O)(=O)c1cccc(C(=O)Nc2ccc3c(c2)CCC3)c1,-14
6,CCn1c(O)c(/C=N/N2CCOCC2)c(=O)n(CC)c1=S,-5.37
7,Cc1ccc(-c2nc3cc(Cl)ccc3o2)cc1,9.41
8,COC(=O)c1ccccc1NC(=O)CSc1nnc(Cc2ccc(Cl)cc2)o1,-39.3
9,CCN(CC)C(=O)c1cccc(NC(=O)CC23CC4CC(CC(C4)C2)C3)c1,0.236
10,Cc1ccc(C(=O)NCC(c2cccs2)N(C)C)cc1S(=O)(=O)N1CCOCC1 (stereo not shown),-1.32
11,CCOc1ccc(NC(=S)NC(=O)/C=C/c2ccc(OC)c(OC)c2)c([N+](=O)[O-])c1,22.1
12,Cc1sc2nc(CSCC(=O)N(CCC#N)c3ccccc3)[nH]c(=O)c2c1C,0.34
13,CC(=O)Oc1ccc2c(c1)C(=O)c1ccccc1C2=O,15.2
14,C#CCOCCOCCOCCNc1nc(N2CCN(C(=O)CCCCCCCCCCNC(=O)Cn3cc(C[C@@H](C)O)nn3)CC2)nc(N2CCN(C(=O)CCCCCCCCCCNC(=O)[C@H](CCCCN)n3cc(CCCC(=O)O)nn3)CC2)n1,-1.72
15,Cc1c(Cl)cccc1NC(=O)CSc1nnc(C)n1CC1CCCO1 (stereo not shown),9.21
16,CCOC(=O)c1nn(-c2ccc(F)cc2)c2nc(-c3ccccc3)c(C#N)c(=O)n12,-1.46
17,Clc1cccc(-c2ccc(/C=N/n3cnnc3)o2)c1Cl,3.94
18,O=C(NN=C1CCCC1)c1ccc(Cl)cc1,15.3
19,Cc1ccc2c(c1)sc1nc(=O)n(-c3ccccc3)c(=O)n12,1.9
20,c1ccc(CSc2nnc(-c3ccco3)c(-c3ccco3)n2)cc1,-3.41
21,CCO[C@H]1OC(C(=O)Nc2ccccc2)=C[C@@H](c2ccc(C(F)(F)F)cc2)[C@@H]1CCCO,-8.39
22,Cc1cccc(NC(=O)C(C)C(=O)c2ccccc2)c1 (stereo not shown),15.7

row,SMILES,"hERG current change (%, negative = inhibition) at 10uM [%]"
1,OCCn1c(C(F)(F)F)nc2ccccc21,6.85
2,CCOC(=O)c1ccc(NS(=O)(=O)c2ccc3c(c2)CCCN3C(C)=O)cc1,-6.72
3,S=C(Nc1ccc(Cl)cc1)Nc1cccc2cnccc12,-11
4,COCCNC(=O)C(c1ccc(O)cc1)N(Cc1ccco1)C(=O)CCC(=O)Nc1nccs1 (stereo not shown),3.92
5,CC(=O)Nc1ccc(S(=O)(=O)Nc2ccccc2C(=O)N2CCCCC2)cc1,12.5
6,Cc1ccc(S(=O)(=O)NC(=O)Nc2nnc(C)s2)cc1,14.4
7,COc1cccc(N/C=C/c2onc(C)c2[N+](=O)[O-])c1,8.8
8,Cc1cc(S(=O)(=O)NC2CCCCC2)ccc1OCC(=O)N1CCOCC1,21.6
9,CN1CCN(C2=Cc3ccccc3Sc3cc(F)c(Cl)cc32)CC1.O=C(O)/C=C\C(=O)O,-12.4
10,O=C(CCN1CCN(C(=O)c2ccccc2)CC1)c1ccc(Br)cc1,-29.5
11,COc1ccc(Cc2nnc(-c3ccc(F)cc3)o2)cc1OC,-12.5
12,Cc1ccc(C(=O)N/C(=C\c2ccco2)C(=O)N2CC(C)OC(C)C2)cc1C (stereo not shown),-10.3
13,COc1cc(/C=N/Nc2nc(=O)[nH]nc2C)ccc1O,4.93
14,Cc1cccc(N2CCN(C(=O)c3ccc4nc(-c5ccco5)c(-c5ccco5)nc4c3)CC2C)c1 (stereo not shown),2.44
15,CCOC(=O)CNC(=S)n1ncnc1N,9.69
16,O=C(NCCCN1CCc2ccccc2C1)C1CCN(S(=O)(=O)N2CCC3(CC2)OCCO3)CC1,-12.4
17,Cc1nnc(SCC(=O)NN2C(=O)NC3(CCCCC3)C2=O)s1,35.5
18,O=C1CN=C(c2ccc(Br)cc2)c2c(sc3c2CCCC3)N1CCN1CCCCC1,-64.4
19,CSc1nc(N)nc(SCCS(=O)(=O)c2ccc(Cl)cc2)c1C#N,-3.5
20,COc1cccc(C(=O)C2CCCN(Cc3cccc(C)n3)C2)c1 (stereo not shown),-53.4
21,Cc1ccccc1C(=O)c1cccn1CC(=O)NCCCN1CCCCC1,-41.9
22,Cc1ccc(S(=O)(=O)CCC(=O)OCC(=O)N2CCN(S(=O)(=O)c3ccc(Cl)cc3)CC2)cc1,25

row,SMILES,"hERG current change (%, negative = inhibition) at 10uM [%]"
1,CCCCCOC(=O)CSc1nc2c(c(=O)[nH]c(=O)n2C)n1CCc1ccccc1,19.9
2,CCCn1c(SCC(=O)N2CCN(c3ccccc3)CC2)nc2ccccc2c1=O,-56.7
3,COC(=O)NC1CSCC1OC(=O)c1ccc(Br)cc1 (stereo not shown),-15.7
4,COc1ccc(N2CCc3c(C)nc4c(OC)cc(OC)cc4c32)c(OC)c1,-75.3
5,COc1ccccc1NC(=O)CSc1nncn1N,6.36
6,O=S(=O)(Nc1ccccn1)c1ccc(C(F)(F)F)cc1Cl,13.9
7,COc1ccc(-c2cc(C(=O)NCCN3CCOCC3)c3cc(C(C)C)ccc3n2)cc1,17.2
8,O=[N+]([O-])c1cc(C(F)(F)F)cc([N+](=O)[O-])c1NCc1cccnc1,-43.3
9,CCn1c(CNC(=O)COC)nc2ccccc21,-4.87
10,Cc1ccc2oc3c(c(=O)c2c1)C(c1cccc(Cl)c1)N(CCCN1CCOCC1)C3=O (stereo not shown),-38.2
11,COc1ccc(/C=C/C(=O)OCC(=O)c2ccc(S(=O)(=O)N3CCCCC3)cc2)cc1OC,10.2
12,COc1ccc(-c2ccc(Nc3ccc(C(=O)N4CCOCC4)cc3)nn2)cc1OC,-5.3
13,Cc1ccc2oc(=O)c3cnn(CC(=O)NC4CCCCC4C)c3c2c1 (stereo not shown),8.43
14,CCn1cc(/C=N\NC(=O)c2c[nH]c3ccccc23)c(C)n1,-5.79
15,CC[C@H](C)[C@H](NS(=O)(=O)c1ccc(C)cc1)C(=O)N1CCC(C(=O)N[C@@H](C)C(=O)O)CC1,19.2
16,C[N+]1(CCNC(=O)/C=N/O)CCCCC1.[I-],17.6
17,CN(C)c1ccc(-c2cccc(C3CC=CC4C3C(=O)N(Cc3ccccc3)C4c3ccc4ccccc4c3)c2)cc1 (stereo not shown),17.5
18,CCS(=O)(=O)N1CCN(C(=O)c2ccccc2)CC1,1.59
19,CN(C)C(/C=C/Nc1ccc(O)cc1)=C(C#N)C#N,14.7
20,Cc1ccc(CSc2nnc3nc(C)cc(C)n23)cc1,-13.5
21,Cc1ccc(Cn2nc3c(cc2=O)CCc2ccccc2-3)cc1,-10.8
22,Cc1cc(C)c2c(=O)[nH]n(C3CCCCCC3)c2n1,23.5

row,SMILES,"hERG current change (%, negative = inhibition) at 10uM [%]"
1,O=C(/C=C/c1ccccc1)Oc1cccc(C(=S)N2CCOCC2)c1,25.2
2,O=C(c1ccc(-c2ccccc2Cl)o1)N1CCN(S(=O)(=O)c2cccs2)CC1,15.9
3,CCOC(=O)C1=C(C)NC(SCC(N)=O)=C(C#N)C1c1cccs1 (stereo not shown),-13.2
4,Cc1nnc(SCC(=O)NC2CCS(=O)(=O)C2)n1Cc1ccccc1 (stereo not shown),24.6
5,O=C(CNC(=O)c1ccc(Cl)cc1)NC1CCCCC1,16.3
6,COC(=O)c1[nH]c2cc(OC)ccc2c1NC(=O)CN1CCC(C(N)=O)CC1,16.7
7,CC(C)(CNC(=O)c1ccccc1F)CNC(=O)c1ccccc1F,6.78
8,CCOC(=O)c1c(-c2ccccc2)csc1NC(=O)CCN1CCOCC1.O=C(O)C(=O)O,-33.2
9,Cc1ccc(N2C(=S)NC3c4ccccc4OC2(C)C3C(=O)N(C)C)cc1 (stereo not shown),20.6
10,OCc1cn(-c2ccccc2)nc1-c1ccc2c(c1)OCCO2,5.83
11,COc1ccc(N2CC(C(=O)N3CCN(c4ccccc4OC)CC3)CC2=O)cc1 (stereo not shown),1.8
12,Cc1cc(N/N=C/c2cccc([N+](=O)[O-])c2)nc(-n2nc(C)cc2C)n1,8.28
13,CCOc1cccc(NC(=O)CSc2nc(C)c3c(c2C#N)CCCC3)c1,0.331
14,CC(C)(C)NC(=O)C(c1ccncc1)N(Cc1cccs1)C(=O)Cn1nnc(-c2ccc(F)cc2)n1 (stereo not shown),-39.8
15,CCOC(=O)c1cc(CC)sc1NC(=O)Cc1ccsc1,1.53
16,O=Cc1nc(-c2ccccc2Cl)n2ccccc12,-10
17,COc1cc(/C=N/NC(=O)CCN2CCN(C)CC2)cc2c1OCO2,11.4
18,O=c1ccc(S(=O)(=O)N2CCCC2)cn1Cc1nc(-c2ccccc2)no1,-12.7
19,Cc1nn(C)c(C(=O)Nc2c(C)nn(Cc3c(F)c(F)c(F)c(F)c3F)c2C)c1Br,2.48
